Source: the supplement of paper PMC11417369
The other results are listed elsewhere or left out.

These sequences were tested on PF3D7_0420300 AP2 domain 1 (GST-tagged) (assay: gcPBM binding intensity (ln(normalized median fluorescence intensity)); higher = stronger DNA binding).
Method in brief: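 GST-tagged P. falciparum DNA-binding domains, expressed in E. coli (about 25 μg on average), were applied for 1 h to an Agilent 4 × 180k array of primer-extended double-stranded 36-bp intergenic genomic probes plus negative controls. The binding buffer was 1× PBS with 1% milk, 0.2 mg/ml BSA, 0.5% salmon testes DNA and 0.03% Triton X-100. Bound protein was detected with Alexa488 anti-GST antibody and scanned at 488 nm. Binding intensity is the highest Masliner-normalised natural-log median intensity across replicate spots of either probe orientation.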

Sequence | gcPBM binding intensity (ln)
AATTGCTCGATATATGCACACAGTTTTGTTATTTTT [CACACA_site8465] | 9.79
AAAACACGCGGACACACACACACACGCCCACATATA [CACACA_site7105] | 10.4
ACTTTCAAGGATGTACGTACATATGTATTTTATAAC [XGTACX_site6714] | 9.26
ATTTCTCTATAGTAATGTACAAAAAAAAGGAAAAAG [XGTACX_site2757] | 9.26
ACATAAAATAAATATACACACATATGTATTTATTAT [CACACA_site5648] | 9.51
AAACCGAATTTACATGAATGTAAATTATGTTGTTTT [CACACA_negctrl_site1834] | 9.22
CAAGAATAAAAATACAAGCACACATGTATGAAATAT [CACACA_site3214] | 9.8
ATATACATATGTGTGTGTACTTATATCACATTTTTG [XGTACX_site3785] | 9.71
TTATGGATAAATAAATGTACGTTAAGATAACACAAA [XGTACX_site4208] | 9.27
TCGACAAAGGCATATACACACATTTGTAACATAAAT [CACACA_site4471] | 9.44
GTTTTTTTGTTTTAGTGTACCTAAAACTGCATGTAG [XGTACX_site294] | 9.41
TATATATATATATATTGTACATTTTTTTTTTTTTTT [XGTACX_site7891] | 8.9
AATTTCAAATTGTATGTGCACATGTAGAAGTACTTT | 9.39
GTGCCTTTAAAAAAAAGTACAAAAAAGAACGAATTA [XGTACX_site3714] | 9.03
AAAAAAAAAAAAAGCACACACACATATGAGTATATA [CACACA_site4682] | 9.87
TTTTCATTAAATATATATGCATACCATATGTACATT [GTGCAC_negctrl_site539] | 9.28
TATGTAAAGAGTAAGGGTACATGTATAATACGGCTC [XGTACX_site1283] | 9.69
AAATACTATATCAAGCGTACTTATTTCATGGTAATA [XGTACX_site7878] | 9.2
TTTAAAATATTTTCTTGTACGAAGGAACATTTCTTA [XGTACX_site4013] | 9.03

Sequence | gcPBM binding intensity (ln)
TATTTAATTACATGAACACACATTATGTATTTTTAA [CACACA_site2962] | 9.28
TTTTTATTTAATAATATATTAATCATATAAATAAAT [GTGCAC_negctrl_site210] | 8.82
TAAAAAAAAAAAACAAGTACATATATAAATATATAT [XGTACX_site7537] | 9.29
TGTATGCATATTTGATGTACGCACATATACTAATTT [XGTACX_site3159] | 9.28
TTTATATAAAAAAATTGTACATATTTATTATAAACA [XGTACX_site2124] | 8.93
ATAATAAATAAAATAACACACATATATAGATATATA [CACACA_site6224] | 9.74
TATATTCTTATTATTGCATGCTGCACGAAGATTTTC [TGCATGCA_site831] | 9.07
GTATGTTTGTTATGCACACAAATGCATCTTATTTCC [CACACA_site2690] | 9.61
CAAAATTTATGTAAAAGTACAAAAATATAGAAAGAT [XGTACX_site1122] | 9.47
TAATCGAAACAAAGAACATGCAAACATATACCTATA [TGCATGCA_site894] | 9.6
TGTGTTCATCTATGCACACGCATATATATTATTGTT [CACACA_site5985] | 9.47
TTTTATTCCTTCTTTGCACACGTTTAAAAATATATA [CACACA_site2899] | 9.52
AATATAATATAAGGATCACACACAAACACCCATATA [CACACA_site8084] | 9.9
ATTAAAAAAATTAAAAGTACACATATTTCAATGATA [XGTACX_site5606] | 9.08
TAAGTTATATGTATATGTACTTATATATATATATAT [XGTACX_site5402] | 9.02
TAAAAAAAAAAAAAAACACACATATAAATATATATA [CACACA_site1243] | 9.34
AAAATTAAAAAGAACACACAAATATATCTATAATAA [CACACA_site7660] | 9.58
TATTTTTTTTCTTATACACACCATGCATCAAACTAA [CACACA_site5208] | 9.4
TTTATATATATATATATATATAATAAATGATACACA [TGCATGCA_negctrl_site392] | 9.04

Sequence | gcPBM binding intensity (ln)
TTTGCACCGTTTAAGTGTACAGAATTATGACATATA [XGTACX_site6735] | 9
TCAAAAATATTCTGGAGTACCTTTTTAAAGGTATAG [XGTACX_site6893] | 8.79
TAAATATATATATACACACACATACACAAAAAAAAA [CACACA_site3580] | 10.1
TGTGGTTACATGTGCACACACTTATTTCGTTCTTAT [CACACA_site4907] | 9.82
ATTGCATATAATGGCACACATAAATCCATAATATAT [CACACA_site297] | 9.29
GCAGGATTGGTTCAAACACACATATTATATGACTAT [CACACA_site660] | 9.48
TTTTTTTTTTTTTTTGCACACACATAATAGGTACAA [CACACA_site3578] | 9.54
ATCTTATATGATCACACACACACGCACAAAACAGAA [CACACA_site4913] | 10.1
GCACATAAATATATGACACACACACCGATTATATAT [CACACA_site9003] | 9.99
TTAATAAATAAAAATGCACACAGTTAACATGTTGAA [CACACA_site1200] | 9.42
ATAATAATTTAATACATACACACGTATATCTTTTTT [CACACA_site2041] | 9.4
AAAAAAAAAAAAAAAACACACAAACATCAAATTATT [CACACA_site5083] | 9.58
ATACAAAAAGTAAAAAGTACTTAACTAAATATATAA [XGTACX_site2335] | 9.28
TTTTCAATATATTAATGTACGAATACGCAAATAAGA [XGTACX_site1613] | 9.12
GTTTTAACAAAATTAGTGCATTTATCAATTATATAA | 9.02
TTTTTTTTTTCAATGGCACACATTTTAGATTTATGC [CACACA_site1074] | 9.15
ATAATACTACCTACATGTACTTATATATAAATGAAT [XGTACX_site3417] | 9.35
ACATCAAGCGGACACACACACACACCGACAGACACA [CACACA_site4361] | 10.2
AAAGAATCAAGAATAGTGCAAATATGTATAACCTTT | 9.6
